# Results from the supplement of paper PMC8728848.
# The list shows a part of the results.
# Experiments:
# Assay in all cases: glycan array binding signal (z-score within array); higher = stronger binding
# Conditions in all cases: glycan notation: IUPAC condensed, linker removed
# [1] = target: Gal4S6S(b1-4)GlcNAc
# Summary of the method: (§1)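 Glycan array data came from 3228 arrays in the Consortium for Functional Glycomics database, and only arrays with an available protein sequence were kept. Glycan names were put into IUPAC-condensed notation, and columns mapping to the same glycan were averaged. The binding signal is a within-array Z-score, averaged across arrays of one protein sequence run at different concentrations or buffers and across linkers. A negative Z-score can be read as non-binding.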
# [2] = target: Gal6S(b1-3)GlcNAc
# Summary of the method: as §1
# [3] = target: Gal6S(b1-3)GlcNAc6S
# Summary of the method: as §1
# [4] = target: Gal6S(b1-4)Glc
# Summary of the method: as §1
# [5] = target: Gal6S(b1-4)Glc6S
# Summary of the method: as §1
# [6] = target: Gal6S(b1-4)GlcNAc
# Summary of the method: as §1
# [7] = target: Gal6S(b1-4)GlcNAc6S
# Summary of the method: as §1
# [8] = target: GalNAc(a1-3)Gal
# Summary of the method: as §1
# [9] = target: GalNAc(a1-3)GalNAc
# Summary of the method: as §1
# [10] = target: GalNAc(a1-3)GalNAc(a1-3)Gal(a1-4)Gal(b1-4)GlcNAc
# Summary of the method: as §1
# [11] = target: GalNAc(a1-3)GalNAc(b1-3)Gal(a1-4)Gal(b1-4)Glc
# Summary of the method: as §1
# [12] = target: GalNAc(b1-3)Gal
# Summary of the method: as §1
# [13] = target: GalNAc(b1-3)Gal(a1-4)Gal(b1-4)GlcNAc
# Summary of the method: as §1
# [14] = target: GalNAc(b1-3)Gal(a1-4)Gal(b1-4)GlcNAc(b1-3)Gal(b1-4)Glc
# Summary of the method: as §1
# [15] = target: GalNAc(b1-3)Gal(a1-6)Gal(b1-4)Glc
# Summary of the method: as §1
# [16] = target: GalNAc(b1-3)GalNAc
# Summary of the method: as §1
# [17] = target: GalNAc(b1-4)GlcNAc
# Summary of the method: as §1
# [18] = target: GalNAc(b1-4)GlcNAc(b1-2)Man(a1-3)[GalNAc(b1-4)GlcNAc(b1-2)Man(a1-6)]Man(b1-4)GlcNAc(b1-4)GlcNAc
# Summary of the method: as §1
# [19] = target: GalNAc(b1-6)GalNAc
# Summary of the method: as §1
# [20] = target: Glc(a1-4)Glc
# Summary of the method: as §1
# [21] = target: Glc(a1-6)Glc(a1-6)Glc
# Summary of the method: as §1
# [22] = target: Glc(b1-4)Glc
# Summary of the method: as §1
# [23] = target: Glc(b1-6)Glc
# Summary of the method: as §1
# [24] = target: GlcA(b1-3)Gal
# Summary of the method: as §1
# [25] = target: GlcA(b1-3)GlcNAc
# Summary of the method: as §1
# [26] = target: GlcA(b1-6)Gal
# Summary of the method: as §1
# [27] = target: GlcNAc(a1-3)Gal(b1-4)GlcNAc
# Summary of the method: as §1
# [28] = target: GlcNAc(a1-4)Gal(b1-3)GlcNAc
# Summary of the method: as §1
# [29] = target: GlcNAc(a1-4)Gal(b1-4)GalNAc
# Summary of the method: as §1
# [30] = target: GlcNAc(a1-4)Gal(b1-4)GlcNAc
# Summary of the method: as §1
# [31] = target: GlcNAc(a1-4)Gal(b1-4)GlcNAc(b1-3)Gal(b1-4)Glc
# Summary of the method: as §1
# [32] = target: GlcNAc(a1-4)Gal(b1-4)GlcNAc(b1-3)Gal(b1-4)GlcNAc
# Summary of the method: as §1
# [33] = target: GlcNAc(a1-4)Gal(b1-4)GlcNAc(b1-3)Gal(b1-4)GlcNAc(b1-3)Gal(b1-4)GlcNAc
# Summary of the method: as §1
# [34] = target: GlcNAc(a1-4)Gal(b1-4)GlcNAc(b1-3)Gal(b1-4)[Fuc(a1-3)]GlcNAc(b1-3)Gal(b1-4)[Fuc(a1-3)]GlcNAc
# Summary of the method: as §1
# [35] = target: GlcNAc(a1-6)Gal(b1-4)GlcNAc
# Summary of the method: as §1
# [36] = target: GlcNAc(b1-2)Gal(b1-3)GalNAc
# Summary of the method: as §1
# [37] = target: GlcNAc(b1-2)Man(a1-3)[GlcNAc(b1-2)Man(a1-6)]Man(b1-4)GlcNAc(b1-4)GlcNAc
# Summary of the method: as §1
# [38] = target: GlcNAc(b1-2)Man(a1-3)[GlcNAc(b1-2)Man(a1-6)]Man(b1-4)GlcNAc(b1-4)[Fuc(a1-6)]GlcNAc
# Summary of the method: as §1
# [39] = target: GlcNAc(b1-2)Man(a1-3)[GlcNAc(b1-4)][GlcNAc(b1-2)Man(a1-6)]Man(b1-4)GlcNAc(b1-4)GlcNAc
# Summary of the method: as §1
# [40] = target: GlcNAc(b1-2)[GlcNAc(b1-4)]Man(a1-3)[GlcNAc(b1-2)Man(a1-6)]Man(b1-4)GlcNAc(b1-4)GlcNAc
# Summary of the method: as §1
# [41] = target: GlcNAc(b1-2)[GlcNAc(b1-4)]Man(a1-3)[GlcNAc(b1-4)][GlcNAc(b1-2)Man(a1-6)]Man(b1-4)GlcNAc(b1-4)GlcNAc
# Summary of the method: as §1
# [42] = target: GlcNAc(b1-2)[GlcNAc(b1-4)]Man(a1-3)[GlcNAc(b1-4)][GlcNAc(b1-2)[GlcNAc(b1-6)]Man(a1-6)]Man(b1-4)GlcNAc(b1-4)GlcNAc
# Summary of the method: as §1
# [43] = target: GlcNAc(b1-2)[GlcNAc(b1-6)]Man(a1-6)[GlcNAc(b1-2)Man(a1-3)]Man(b1-4)GlcNAc(b1-4)GlcNAc
# Summary of the method: as §1
# [44] = target: GlcNAc(b1-2)[GlcNAc(b1-6)]Man(a1-6)[GlcNAc(b1-2)Man(a1-3)][GlcNAc(b1-4)]Man(b1-4)GlcNAc(b1-4)GlcNAc
# Summary of the method: as §1
# [45] = target: GlcNAc(b1-3)Gal
# Summary of the method: as §1
binder,measurement,setting,value
Tectonin 2 (Laccaria bicolor) (protein) MPWKGISGSLSRISAGSVTNVWGVNAANNIYRYTGDDAKPWVQIPGALTDIGAAADGTVWGVNAAGNIYRYVWDSNHWTQIKGALKRISAGSRTNVWGVNAGGAIYRYTGDDANPWVQIPGVLSDIGAGADGTVWGVNAAGEIYRYTGDQGDPNHWVKIPGALSAISAGIKTNVWGVNSANNIYTSTGDDKNPWLGIGGSLVDIGAGTDGVVWGVNAGGGIYRWIRD,glycan array binding signal (z-score),[1],1.36
same,glycan array binding signal (z-score),[2],0.325
same,glycan array binding signal (z-score),[3],0.188
same,glycan array binding signal (z-score),[4],-0.227
same,glycan array binding signal (z-score),[5],0.054
same,glycan array binding signal (z-score),[6],0.484
same,glycan array binding signal (z-score),[7],2.71
same,glycan array binding signal (z-score),[8],-0.17
same,glycan array binding signal (z-score),[9],-0.155
same,glycan array binding signal (z-score),[10],-0.361
same,glycan array binding signal (z-score),[11],-0.447
same,glycan array binding signal (z-score),[12],-0.264
same,glycan array binding signal (z-score),[13],-0.448
same,glycan array binding signal (z-score),[14],-0.218
same,glycan array binding signal (z-score),[15],-0.462
same,glycan array binding signal (z-score),[16],-0.168
same,glycan array binding signal (z-score),[17],-0.434
same,glycan array binding signal (z-score),[18],-0.002
same,glycan array binding signal (z-score),[19],-0.588
same,glycan array binding signal (z-score),[20],-0.35
same,glycan array binding signal (z-score),[21],-0.136
same,glycan array binding signal (z-score),[22],-0.277
same,glycan array binding signal (z-score),[23],-0.563
same,glycan array binding signal (z-score),[24],-0.286
same,glycan array binding signal (z-score),[25],4.49
same,glycan array binding signal (z-score),[26],-0.284
same,glycan array binding signal (z-score),[27],-0.184
same,glycan array binding signal (z-score),[28],-0.298
same,glycan array binding signal (z-score),[29],-0.044
same,glycan array binding signal (z-score),[30],-0.315
same,glycan array binding signal (z-score),[31],-0.369
same,glycan array binding signal (z-score),[32],-0.238
same,glycan array binding signal (z-score),[33],-0.08
same,glycan array binding signal (z-score),[34],2.15
same,glycan array binding signal (z-score),[35],-0.426
same,glycan array binding signal (z-score),[36],-0.13
same,glycan array binding signal (z-score),[37],-0.319
same,glycan array binding signal (z-score),[38],0.258
same,glycan array binding signal (z-score),[39],-0.521
same,glycan array binding signal (z-score),[40],-0.676
same,glycan array binding signal (z-score),[41],-0.327
same,glycan array binding signal (z-score),[42],0.046
same,glycan array binding signal (z-score),[43],-0.312
same,glycan array binding signal (z-score),[44],-0.392
same,glycan array binding signal (z-score),[45],-0.423
